Measurements reported in patent US20230250147A1, “GLP-1R AGONISTIC PEPTIDES WITH REDUCED ACTIVITY” (SANOFI, priority 2020, published 2023).

Experiments:
Format in all cases: cell-based
Human GLP-1R = target: T1, Human GLP-1R (Homo sapiens, UniProt P43220); assay: HTRF cAMP assay in HEK-293 cells, human GLP-1R
T1 construct: expressed in transfected cells; host or cells: HEK-293
Protocol: (§1) Recombinant HEK-293 cells were grown in T175 culture flasks placed at 37° C. to near confluence in medium (DMEM with 10% FBS) and collected in 2 mL vials in cell culture medium containing 10% DMSO in concentrations of 1-5×10^7 cells/mL. Each vial contained 1.8 mL cell suspension. The vials were slowly frozen to −80° C. in an isopropanol chamber, and then transferred to liquid nitrogen for long term storage.
(§2) Prior to their use, frozen cells were thawed quickly at 37° C., washed with 20 mL cell buffer (1×HBSS; 20 mM HEPES, 0.1% BSA) and centrifuged for 5 minutes at 900 rpm. Cells were resuspended in assay buffer (cell buffer plus 2 mM IBMX) and adjusted to a cell density of 1×10^6 cells/mL. For measurement, 5 μL cell suspension (final 5×10^3 cells/well) and 5 μL of test compound were added to a well of a 384-well plate, followed by incubation for 30 minutes at room temperature. […] The cAMP content of cells was determined using a kit from Cisbio Corp. (cat. no. 62AM4PEC) based on Homogenous Time Resolved Fluorescence (HTRF).

Monkey GLP-1R = target: T2, Monkey GLP-1R (Macaca fascicularis, UniProt F8V479); assay: HTRF cAMP assay in HEK-293 cells, monkey GLP-1R
T2 construct: expressed in transfected cells; host or cells: HEK-293
Protocol: as §1, §2

Mouse GLP-1R = target: T3, Mouse GLP-1R (Mus musculus, UniProt O35659); assay: HTRF cAMP assay in HEK-293 cells, mouse GLP-1R
T3 construct: expressed in transfected cells; host or cells: HEK-293
T3 sequence (O35659 22-463): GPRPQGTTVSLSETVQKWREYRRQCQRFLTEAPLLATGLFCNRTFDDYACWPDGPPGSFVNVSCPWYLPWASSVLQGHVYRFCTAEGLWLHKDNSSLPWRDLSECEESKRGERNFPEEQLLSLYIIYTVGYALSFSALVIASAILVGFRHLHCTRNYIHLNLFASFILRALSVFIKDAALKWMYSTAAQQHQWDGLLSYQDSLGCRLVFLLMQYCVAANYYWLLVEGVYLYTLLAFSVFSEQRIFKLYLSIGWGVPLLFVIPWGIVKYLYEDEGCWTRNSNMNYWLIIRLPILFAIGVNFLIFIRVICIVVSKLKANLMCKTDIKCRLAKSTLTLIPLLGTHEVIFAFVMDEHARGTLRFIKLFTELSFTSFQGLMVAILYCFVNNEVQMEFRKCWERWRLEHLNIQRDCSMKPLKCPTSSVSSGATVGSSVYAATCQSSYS
Protocol: as §1, §2

T1 sequence (P43220 24-463): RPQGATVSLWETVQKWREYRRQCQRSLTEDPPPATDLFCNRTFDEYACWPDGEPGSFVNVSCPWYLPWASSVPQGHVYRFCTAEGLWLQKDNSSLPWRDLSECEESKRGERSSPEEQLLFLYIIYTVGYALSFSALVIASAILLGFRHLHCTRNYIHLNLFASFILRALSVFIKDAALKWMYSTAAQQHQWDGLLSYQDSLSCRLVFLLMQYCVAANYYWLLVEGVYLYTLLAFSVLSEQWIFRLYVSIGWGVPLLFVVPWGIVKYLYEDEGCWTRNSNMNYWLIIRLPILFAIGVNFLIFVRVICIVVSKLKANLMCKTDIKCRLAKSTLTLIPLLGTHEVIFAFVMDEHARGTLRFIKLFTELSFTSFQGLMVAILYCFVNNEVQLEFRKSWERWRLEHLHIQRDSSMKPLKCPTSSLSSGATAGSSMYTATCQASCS
T2 sequence (F8V479 24-463): as the sequence (P43220 24-463) above, with S112N, F120S, S202G, L205V, L237F, W241R, I249V counted along it

Molecule | EC50 (Human GLP-1R) [nM] | EC50 (Monkey GLP-1R) [nM] | EC50 (Mouse GLP-1R) [nM]
171 (protein, Fusion Protein) HGEGTFTSDKSKQLAKRLVRLFIEWLIKGGPSSGAPPPSGGGGGGGSGGGGSGGGGSA[… human IgG4 Fc with changes …]GGGSGSAHPIPDSSPLLQFGGQVRQRYLYTDDACQTEAHLEIREDGTVGGAADQSPESLLQLKALKPGVIQILGVKTSRFLCQRPDGALYGSLHFDPEACSFRELLLEDGYNVYQSEAHGLPLHLPGCKSPHRDPAPRGPARFLPLPGLPPAPPEPPGILAPQPPDVGSSDPLSMVGSQGRSPSYAS | 0.267 | – | –
174 (protein, Fusion Protein) HGEGTFTSDLSKQLAKRLVREFIEWLIEGGPSSGAPPPSGGGGGGGSGGGGSGGGGSA[… human IgG4 Fc with changes …]GGGSGSAHPIPDSSPLLQFGGQVRQRYLYTDDACQTEAHLEIREDGTVGGAADQSPESLLQLKALKPGVIQILGVKTSRFLCQRPDGALYGSLHFDPEACSFRELLLEDGYNVYQSEAHGLPLHLPGCKSPHRDPAPRGPARFLPLPGLPPAPPEPPGILAPQPPDVGSSDPLSMVGSQGRSPSYAS | 0.077 | – | –
18 (protein, Fusion Protein) HGEGTFTSDLSKQLEEERVQEFIEWLKAGGPSSGAPPPSGGGGGGGSGGGGSGGGGSA[… human IgG4 Fc with changes …]GGGSGSAHPIPDSSPLLQFGGQVRQRYLYTDDACQTEAHLEIREDGTVGGAADQSPESLLQLKALKPGVIQILGVKTSRFLCQRPDGALYGSLHFDPEACSFRELLLEDGYNVYQSEAHGLPLHLCGNKSPHRDPAPRGPARFLPLPGLPPAPPEPPGILAPQPPDVGSSDPLSMVGSQGRSPSYAS | 0.0099 | 0.0102 | 0.00209
19 (protein, Fusion Protein) HGEGTFTSDLSKQLEEERVQEFIEWLKAGGPSSGAPPPSGGGGGGGSGGGGSGGGGSA[… human IgG4 Fc with changes …]GGGSGSAHPIPDSSPLLQFGGQVRQRYLYTDDACQTEAHLEIREDGTVGGAADQSPESLLQLKALKPGVIQILGVKTSRFLCQRPDGALYGSLHFDPEACSFRELLLEDGYNVYQSEAHGLPLHLCGNKSPHRDPAPRGPARFLPLPGLPPAPPEPPGILAPQPPDVGSSDPLSMVYPSQGRSPSYAS | 0.0112 | 0.0109 | 0.00216
20 (protein, Fusion Protein) HGEGTFTSDLSKQLEEERVQEFIEWLKAGGPSSGAPPPSGGGGGGGSGGGGSGGGGSA[… human IgG4 Fc with changes …]GGGSGSAHPIPDSSPLLQFGGQVRQRYLYTDDACQTEAHLEIREDGTVGGAADQSPESLLQLKALKPGVIQILGVKTSRFLCQRPDGALYGSLHFDPEACSFRELLLEDGYNVYQSEAHGLPLHLPGCKSPHRDPAPRGPARFLPLPGLPPAPPEPPGILAPQPPDVGSSDPLSMVYPSQGRSPSYAS | 0.00949 | 0.00986 | 0.00197
21 (protein, Fusion Protein) HGEGTFTSDLSIQLEEEAVQEFIEWLLATGPSSGAPPPSGGGGGGGSGGGGSGGGGSA[… human IgG4 Fc with changes …]GGGSGSAHPIPDSSPLLQFGGQVRQRYLYTDDACQTEAHLEIREDGTVGGAADQSPESLLQLKALKPGVIQILGVKTSRFLCQRPDGALYGSLHFDPEACSFRELLLEDGYNVYQSEAHGLPLHLCGNKSPHRDPAPRGPARFLPLPGLPPAPPEPPGILAPQPPDVGSSDPLSMVGSQGRSPSYAS | 0.0938 | 0.0787 | 0.00419
22 (protein, Fusion Protein) HGEGTFTSDLSIQLEEEAVQEFIEWLLATGPSSGAPPPSGGGGGGGSGGGGSGGGGSA[… human IgG4 Fc with changes …]GGGSGSAHPIPDSSPLLQFGGQVRQRYLYTDDACQTEAHLEIREDGTVGGAADQSPESLLQLKALKPGVIQILGVKTSRFLCQRPDGALYGSLHFDPEACSFRELLLEDGYNVYQSEAHGLPLHLCGNKSPHRDPAPRGPARFLPLPGLPPAPPEPPGILAPQPPDVGSSDPLSMVYPSQGRSPSYAS | 0.0856 | 0.0739 | 0.00388
23 (protein, Fusion Protein) HGEGTFTSDLSIQLEEEAVQEFIEWLLATGPSSGAPPPSGGGGGGGSGGGGSGGGGSA[… human IgG4 Fc with changes …]GGGSGSAHPIPDSSPLLQFGGQVRQRYLYTDDACQTEAHLEIREDGTVGGAADQSPESLLQLKALKPGVIQILGVKTSRFLCQRPDGALYGSLHFDPEACSFRELLLEDGYNVYQSEAHGLPLHLPGCKSPHRDPAPRGPARFLPLPGLPPAPPEPPGILAPQPPDVGSSDPLSMVGSQGRSPSYAS | 0.0787 | 0.0707 | 0.00332
24 (protein, Fusion Protein) HGEGTFTSDLSIQLEEEAVQEFIEWLLATGPSSGAPPPSGGGGGGGSGGGGSGGGGSA[… human IgG4 Fc with changes …]GGGSGSAHPIPDSSPLLQFGGQVRQRYLYTDDACQTEAHLEIREDGTVGGAADQSPESLLQLKALKPGVIQILGVKTSRFLCQRPDGALYGSLHFDPEACSFRELLLEDGYNVYQSEAHGLPLHLPGCKSPHRDPAPRGPARFLPLPGLPPAPPEPPGILAPQPPDVGSSDPLSMVYPSQGRSPSYAS | 0.0488 | 0.0435 | 0.00266
88 (protein, Fusion Protein) HGEGTFTSDLSILLDEEAVREFIEWLLATGPSSGAPPPSGGGGGGGSGGGGSGGGGSA[… human IgG4 Fc with changes …]GGGSGSAHPIPDSSPLLQFGGQVRQRYLYTDDACQTEAHLEIREDGTVGGAADQSPESLLQLKALKPGVIQILGVKTSRFLCQRPDGALYGSLHFDPEACSFRELLLEDGYNVYQSEAHGLPLHLPGCKSPHRDPAPRGPARFLPLPGLPPAPPEPPGILAPQPPDVGSSDPLSMVGSQGRSPSYAS | 0.033 | – | –
89 (protein, Fusion Protein) HGEGTFTSDLSILLDEEAVRLFIEWLLATGPSSGAPPPSGGGGGGGSGGGGSGGGGSA[… human IgG4 Fc with changes …]GGGSGSAHPIPDSSPLLQFGGQVRQRYLYTDDACQTEAHLEIREDGTVGGAADQSPESLLQLKALKPGVIQILGVKTSRFLCQRPDGALYGSLHFDPEACSFRELLLEDGYNVYQSEAHGLPLHLPGCKSPHRDPAPRGPARFLPLPGLPPAPPEPPGILAPQPPDVGSSDPLSMVGSQGRSPSYAS | 0.0453 | – | –
90 (protein, Fusion Protein) HGEGTFTSDLSILLDEEAVQLFIEWLLATGPSSGAPPPSGGGGGGGSGGGGSGGGGSA[… human IgG4 Fc with changes …]GGGSGSAHPIPDSSPLLQFGGQVRQRYLYTDDACQTEAHLEIREDGTVGGAADQSPESLLQLKALKPGVIQILGVKTSRFLCQRPDGALYGSLHFDPEACSFRELLLEDGYNVYQSEAHGLPLHLPGCKSPHRDPAPRGPARFLPLPGLPPAPPEPPGILAPQPPDVGSSDPLSMVGSQGRSPSYAS | 0.336 | – | –
95 (protein, Fusion Protein) HGEGTFTSDLSILLEEEAVREFIEWLLATGPSSGAPPPSGGGGGGGSGGGGSGGGGSA[… human IgG4 Fc with changes …]GGGSGSAHPIPDSSPLLQFGGQVRQRYLYTDDACQTEAHLEIREDGTVGGAADQSPESLLQLKALKPGVIQILGVKTSRFLCQRPDGALYGSLHFDPEACSFRELLLEDGYNVYQSEAHGLPLHLPGCKSPHRDPAPRGPARFLPLPGLPPAPPEPPGILAPQPPDVGSSDPLSMVGSQGRSPSYAS | 0.0185 | – | –
96 (protein, Fusion Protein) HGEGTFTSDLSILLEEEAVRLFIEWLLATGPSSGAPPPSGGGGGGGSGGGGSGGGGSA[… human IgG4 Fc with changes …]GGGSGSAHPIPDSSPLLQFGGQVRQRYLYTDDACQTEAHLEIREDGTVGGAADQSPESLLQLKALKPGVIQILGVKTSRFLCQRPDGALYGSLHFDPEACSFRELLLEDGYNVYQSEAHGLPLHLPGCKSPHRDPAPRGPARFLPLPGLPPAPPEPPGILAPQPPDVGSSDPLSMVGSQGRSPSYAS | 0.044 | – | –
